Source: paper PMC12483278, “The viral BCL2 protein BHRF1 of Epstein–Barr virus promotes AIM2 inflammasome activation to facilitate lytic replication” (PLOS Pathogens, 2025)
Numbering of substitutions follows the chain as printed. Names and notes keep the numbering of the source. No constants are given. Whether binding was seen depends on the method and setting. For part of these data: Binding seen in cells or lysates may run through a third protein. Some entries that bind do so weakly or less than the wild type. For part of these data: Sequences can lack the tags named with a protein.

Chains of the proteins cited; added tags and fusions are not shown.
UniProt Q9ULZ3: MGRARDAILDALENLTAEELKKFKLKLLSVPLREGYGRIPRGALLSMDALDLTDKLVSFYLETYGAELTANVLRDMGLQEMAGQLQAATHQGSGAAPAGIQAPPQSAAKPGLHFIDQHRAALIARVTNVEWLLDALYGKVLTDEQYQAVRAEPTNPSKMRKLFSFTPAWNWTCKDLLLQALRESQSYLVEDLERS
UniProt P29466: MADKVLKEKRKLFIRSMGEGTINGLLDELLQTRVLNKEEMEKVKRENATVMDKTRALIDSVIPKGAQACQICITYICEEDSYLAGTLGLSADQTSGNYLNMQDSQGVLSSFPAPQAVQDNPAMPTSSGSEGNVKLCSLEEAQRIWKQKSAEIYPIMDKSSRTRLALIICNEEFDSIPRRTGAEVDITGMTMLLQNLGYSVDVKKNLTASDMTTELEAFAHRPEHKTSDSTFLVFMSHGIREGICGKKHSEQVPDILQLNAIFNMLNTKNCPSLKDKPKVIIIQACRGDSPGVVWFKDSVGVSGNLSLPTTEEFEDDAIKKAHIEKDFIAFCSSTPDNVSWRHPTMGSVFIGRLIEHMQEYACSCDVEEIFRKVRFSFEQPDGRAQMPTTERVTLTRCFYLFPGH
UniProt Q16666: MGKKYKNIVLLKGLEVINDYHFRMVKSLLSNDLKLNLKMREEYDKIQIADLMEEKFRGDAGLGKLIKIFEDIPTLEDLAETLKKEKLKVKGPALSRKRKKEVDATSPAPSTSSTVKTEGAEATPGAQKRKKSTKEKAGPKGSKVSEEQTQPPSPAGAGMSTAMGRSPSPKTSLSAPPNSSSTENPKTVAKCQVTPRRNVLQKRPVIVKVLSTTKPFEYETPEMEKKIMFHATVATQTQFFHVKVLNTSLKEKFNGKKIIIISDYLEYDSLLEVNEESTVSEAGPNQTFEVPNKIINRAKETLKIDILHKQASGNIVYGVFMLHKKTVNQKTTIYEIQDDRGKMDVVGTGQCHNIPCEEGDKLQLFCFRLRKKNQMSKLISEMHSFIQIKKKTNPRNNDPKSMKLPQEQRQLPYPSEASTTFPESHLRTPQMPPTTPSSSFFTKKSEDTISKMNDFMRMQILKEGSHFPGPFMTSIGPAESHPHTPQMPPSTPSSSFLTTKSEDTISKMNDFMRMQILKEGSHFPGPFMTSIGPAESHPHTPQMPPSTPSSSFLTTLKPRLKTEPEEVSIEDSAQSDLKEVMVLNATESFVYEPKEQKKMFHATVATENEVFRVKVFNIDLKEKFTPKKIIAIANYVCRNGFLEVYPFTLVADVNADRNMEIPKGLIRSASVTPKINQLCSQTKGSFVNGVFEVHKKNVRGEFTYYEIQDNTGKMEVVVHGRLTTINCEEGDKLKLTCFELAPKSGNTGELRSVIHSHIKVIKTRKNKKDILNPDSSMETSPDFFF

T1: GST-AIM2 full-length (UniProt O14862)
T1 sequence: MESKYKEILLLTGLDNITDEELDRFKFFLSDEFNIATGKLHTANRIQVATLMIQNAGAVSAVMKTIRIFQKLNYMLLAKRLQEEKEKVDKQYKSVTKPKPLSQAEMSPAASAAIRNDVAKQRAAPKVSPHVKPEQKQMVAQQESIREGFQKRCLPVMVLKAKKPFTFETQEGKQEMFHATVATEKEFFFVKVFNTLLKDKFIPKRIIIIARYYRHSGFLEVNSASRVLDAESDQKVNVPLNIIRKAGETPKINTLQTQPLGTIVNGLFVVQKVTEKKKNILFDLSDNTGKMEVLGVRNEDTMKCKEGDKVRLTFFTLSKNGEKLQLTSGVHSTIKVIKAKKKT

T2: GST-AIM2 E186A (UniProt O14862)
T2 sequence: T1 sequence with E186A

T3: GST-AIM2 full-length, O14862
T3 chain: T1 sequence

B1: Flag-AIM2 (protein, UniProt O14862 1-343)
chain: T1 sequence
B2: GST-AIM2 full-length, O14862 1-343 (protein)
chain: T1 sequence
B3: GST-AIM2 E186A (protein, UniProt O14862 1-343)
chain: T1 sequence with E186A
B4: AIM2 (endogenous, P3HR1 cells) (protein, UniProt O14862 1-343)
chain: T1 sequence
B5: RIG-I (endogenous, P3HR1 cells) (protein, UniProt O95786 1-925)
chain: MTTEQRRSLQAFQDYIRKTLDPTYILSYMAPWFREEEVQYIQAEKNNKGPMEAATLFLKFLLELQEEGWFRGFLDALDHAGYSGLYEAIESWDFKKIEKLEEYRLLLKRLQPEFKTRIIPTDIISDLSECLINQECEEILQICSTKGMMAGAEKLVECLLRSDKENWPKTLKLALEKERNKFSELWIVEKGIKDVETEDLEDKMETSDIQIFYQEDPECQNLSENSCPPSEVSDTNLYSPFKPRNYQLELALPAMKGKNTIICAPTGCGKTFVSLLICEHHLKKFPQGQKGKVVFFANQIPVYEQQKSVFSKYFERHGYRVTGISGATAENVPVEQIVENNDIIILTPQILVNNLKKGTIPSLSIFTLMIFDECHNTSKQHPYNMIMFNYLDQKLGGSSGPLPQVIGLTASVGVGDAKNTDEALDYICKLCASLDASVIATVKHNLEELEQVVYKPQKFFRKVESRISDKFKYIIAQLMRDTESLAKRICKDLENLSQIQNREFGTQKYEQWIVTVQKACMVFQMPDKDEESRICKALFLYTSHLRKYNDALIISEHARMKDALDYLKDFFSNVRAAGFDEIEQDLTQRFEEKLQELESVSRDPSNENPKLEDLCFILQEEYHLNPETITILFVKTRALVDALKNWIEGNPKLSFLKPGILTGRGKTNQNTGMTLPAQKCILDAFKASGDHNILIATSVADEGIDIAQCNLVILYEYVGNVIKMIQTRGRGRARGSKCFLLTSNAGVIEKEQINMYKEKMMNDSILRLQTWDEAVFREKILHIQTHEKFIRDSQEKPKPVPDKENKKLLCRKCKALACYTADVRVIEECHYTVLGDAFKECFVSRPHPKPKQFSSFEKRAKIFCARQNCSHDWGIHVKYKTFEIPVIKIESFVVEDIATGVQTLYSKWKDFHFEKIPFDPAEMSK

What was measured:
[1] = target: BHRF1 (endogenous, P3HR1 cells in lytic replication) (Epstein–Barr virus (endogenous in P3HR1)) (UniProt P03182); experiment: co-IP; P3HR1 cells left untreated or induced with TPA plus NaB for 48 h; cell lysates immunoprecipitated with an anti-BHRF1 antibody, western blotting
[2] = target: T1, GST-AIM2 full-length; experiment: co-IP
[3] = target: T2, GST-AIM2 E186A; experiment: co-IP
[4] = target: GST-tagged BHRF1 (Epstein–Barr virus) (UniProt P03182); experiment: co-IP
[5] = target: T3, GST-AIM2 full-length, O14862; experiment: pull-down; purified GST-AIM2 and Flag-AIM2-His mixed and incubated overnight at 4 °C in the presence of purified dsDNA; GST-affinity beads, western blotting; both purified; conditions: remark: other sources report otherwise
[6] = target: T3, GST-AIM2 full-length, O14862; experiment: co-IP; HEK293T cells transfected with GST-fused and Flag-tagged AIM2 WT or E186A alone or together for 36 h, infected with HSV-1 (MOI = 1) for 12 h; immunoprecipitation and western blotting; conditions: remark: other sources report otherwise
[7] = target: T2, GST-AIM2 E186A; experiment: as above

Molecule	binding [1]	binding [2]	also measured
ASC (endogenous, P3HR1 cells) (from UniProt Q9ULZ3 1-195)	binds		
Caspase-1 (endogenous, P3HR1 cells) (from UniProt P29466 1-404) (enzyme)	binds		
Flag-tagged BHRF1 WT (from UniProt P03182 1-191)		binds	
GFP-BHRF1 C-terminal fragment aa157–191 (from UniProt P03182 157-191) (domain or fragment)		binds	
GFP-BHRF1 fragment aa109–191 (from UniProt P03182 109-191) (domain or fragment)		binds	
GFP-BHRF1 wild-type (from UniProt P03182 1-191)		binds	binding [3]: no binding
GFP-BHRF1 Δ157–191 (from UniProt P03182 1-156) (domain or fragment)		no binding	
IFI16 (endogenous, P3HR1 cells) (from UniProt Q16666 1-785)	no binding		
B1			binding [4]: binds
B2			binding [5]: binds; binding [6]: binds
B3			binding [7]: binds
B4	binds		
B5	no binding		
